No constants are given. Whether binding was seen depends on the method and setting. For part of these data: Binding seen in cells or lysates may run through a third protein. Some binding calls cover weakened binding; strength is not graded here. Sequences can lack the tags named with a protein.

Consider nine molecules from publication PMC11952846, “The sterol-regulating human ARV1 binds cholesterol and phospholipids through its conserved ARV1 homology domain” (The Journal of Biological Chemistry, 2025).

The target of assay [1] is T1, ARV1-N98, yeast two-hybrid fusions (pAD-ARV1-N98 and pBD-ARV1-N98) (human) (UniProt Q9H2C2).
T1 sequence: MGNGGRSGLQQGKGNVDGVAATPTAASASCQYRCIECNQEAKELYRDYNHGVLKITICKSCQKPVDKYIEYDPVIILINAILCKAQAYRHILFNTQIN
The assay is described as follows: two-hybrid; yeast with p-AD and p-BD plasmids; serial dilutions on leu- trp- his- interaction selective medium, 37 °C, growth after 7 days.

The target in assay [2] is T2, ARV1-N98, NanoBRET fusions (Nano-Luc or Halo-tag) (human) (UniProt Q9H2C2).
T2 sequence: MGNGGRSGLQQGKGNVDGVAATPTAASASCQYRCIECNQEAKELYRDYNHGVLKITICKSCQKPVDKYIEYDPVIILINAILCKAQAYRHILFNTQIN
The assay is described as follows: FRET or BRET; Promega NanoBRET in HEK293T cells co-transfected with NanoLuc-fusion (donor) and HaloTag-fusion (acceptor) vectors; Halo + Nluc as negative control.

The target in assay [3] is ARV1-MYC and ARV1-FLAG (human) (UniProt Q9H2C2). The assay is described as follows: co-IP; E. coli lysates with ARV1-MYC and ARV1-FLAG expressed separately and mixed; immunoprecipitated with anti-FLAG or anti-MYC, blotted with the antibody to the other tag; IgG as control.
Assay [4] concerns the target T3, full-length ARV1, NanoBRET fusions (Halo-ARV1 and Nluc-ARV1) (human) (UniProt Q9H2C2).
T3 sequence: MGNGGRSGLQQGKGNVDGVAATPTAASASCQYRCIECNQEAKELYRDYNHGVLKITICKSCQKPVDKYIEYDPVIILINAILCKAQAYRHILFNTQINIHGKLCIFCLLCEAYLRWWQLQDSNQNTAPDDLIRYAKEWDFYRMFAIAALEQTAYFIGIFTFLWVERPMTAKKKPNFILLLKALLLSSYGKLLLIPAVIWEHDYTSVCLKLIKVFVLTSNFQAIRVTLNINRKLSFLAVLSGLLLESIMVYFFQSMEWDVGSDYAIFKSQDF
The assay is described as follows: FRET or BRET; Promega NanoBRET in HEK293T cells co-transfected with NanoLuc-fusion (donor) and HaloTag-fusion (acceptor) vectors; Halo + Nluc as negative control.

The target in a further assay is T4, GST-ARV1-N10 (human) (UniProt Q9H2C2).
T4 sequence: MGNGGRSGLQ
The assay is described as follows: far-Western, overlay or dot blot; GST, GST-ARV1 truncations and 6XHIS-ARV1 dotted onto nitrocellulose, incubated with 6XHIS-ARV1 protein, probed with anti-6XHIS (and anti-GST) antibodies; both purified.

Another assay deals with T5, GST-ARV1-N60 (human) (UniProt Q9H2C2).
T5 sequence: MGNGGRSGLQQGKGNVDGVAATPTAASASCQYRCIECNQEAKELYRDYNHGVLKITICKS
The assay is described as above.

In assay [5] the target is full-length ARV1, yeast two-hybrid fusions (pAD-ARV1 and pBD-ARV1) (human) (UniProt Q9H2C2). The assay is described as follows: two-hybrid; yeast with p-AD and p-BD plasmids; serial dilutions on leu- trp- his- interaction selective medium, 37 °C, growth after 7 days.

B1: ARV1-N98, yeast two-hybrid fusions (pAD-ARV1-N98 and pBD-ARV1-N98) (domain or fragment, UniProt Q9H2C2 1-98)
chain: MGNGGRSGLQQGKGNVDGVAATPTAASASCQYRCIECNQEAKELYRDYNHGVLKITICKSCQKPVDKYIEYDPVIILINAILCKAQAYRHILFNTQIN
In the case of B1, in assay [1], the binding result is listed as “binds”.

B2: ARV1-N98, NanoBRET fusions (Nano-Luc or Halo-tag) (domain or fragment, UniProt Q9H2C2 1-98)
chain: MGNGGRSGLQQGKGNVDGVAATPTAASASCQYRCIECNQEAKELYRDYNHGVLKITICKSCQKPVDKYIEYDPVIILINAILCKAQAYRHILFNTQIN
Consider B2, for which the binding entry in assay [2] is “binds”.

B3: ARV1-MYC and ARV1-FLAG (protein, UniProt Q9H2C2 1-271)
chain: MGNGGRSGLQQGKGNVDGVAATPTAASASCQYRCIECNQEAKELYRDYNHGVLKITICKSCQKPVDKYIEYDPVIILINAILCKAQAYRHILFNTQINIHGKLCIFCLLCEAYLRWWQLQDSNQNTAPDDLIRYAKEWDFYRMFAIAALEQTAYFIGIFTFLWVERPMTAKKKPNFILLLKALLLSSYGKLLLIPAVIWEHDYTSVCLKLIKVFVLTSNFQAIRVTLNINRKLSFLAVLSGLLLESIMVYFFQSMEWDVGSDYAIFKSQDF
For the molecule B3, the binding entry in assay [3] is “binds”.

B4: Nluc-ARV1 (C58/C61A), full-length ARV1 mutant (protein, UniProt Q9H2C2 1-271)
chain: MGNGGRSGLQQGKGNVDGVAATPTAASASCQYRCIECNQEAKELYRDYNHGVLKITIAKSAQKPVDKYIEYDPVIILINAILCKAQAYRHILFNTQINIHGKLCIFCLLCEAYLRWWQLQDSNQNTAPDDLIRYAKEWDFYRMFAIAALEQTAYFIGIFTFLWVERPMTAKKKPNFILLLKALLLSSYGKLLLIPAVIWEHDYTSVCLKLIKVFVLTSNFQAIRVTLNINRKLSFLAVLSGLLLESIMVYFFQSMEWDVGSDYAIFKSQDF
B4: in assay [4], the binding entry was “no binding”.

B5: Nluc-ARV1 (N94A), full-length ARV1 mutant (protein, UniProt Q9H2C2 1-271)
chain: MGNGGRSGLQQGKGNVDGVAATPTAASASCQYRCIECNQEAKELYRDYNHGVLKITICKSCQKPVDKYIEYDPVIILINAILCKAQAYRHILFATQINIHGKLCIFCLLCEAYLRWWQLQDSNQNTAPDDLIRYAKEWDFYRMFAIAALEQTAYFIGIFTFLWVERPMTAKKKPNFILLLKALLLSSYGKLLLIPAVIWEHDYTSVCLKLIKVFVLTSNFQAIRVTLNINRKLSFLAVLSGLLLESIMVYFFQSMEWDVGSDYAIFKSQDF
For the molecule B5, in assay [4], the binding result is reported as “binds”.

B6: 6XHIS-ARV1 (full-length human ARV1, N-terminal 6XHIS tag) (protein, UniProt Q9H2C2 1-271)
chain: MGNGGRSGLQQGKGNVDGVAATPTAASASCQYRCIECNQEAKELYRDYNHGVLKITICKSCQKPVDKYIEYDPVIILINAILCKAQAYRHILFNTQINIHGKLCIFCLLCEAYLRWWQLQDSNQNTAPDDLIRYAKEWDFYRMFAIAALEQTAYFIGIFTFLWVERPMTAKKKPNFILLLKALLLSSYGKLLLIPAVIWEHDYTSVCLKLIKVFVLTSNFQAIRVTLNINRKLSFLAVLSGLLLESIMVYFFQSMEWDVGSDYAIFKSQDF
For the molecule B6, the binding entry in the assay with GST-ARV1-N10 (human) and with GST-ARV1-N60 (human) was “no binding” in each case.

B7: full-length ARV1, NanoBRET fusions (Halo-ARV1 and Nluc-ARV1) (protein, UniProt Q9H2C2 1-271)
chain: MGNGGRSGLQQGKGNVDGVAATPTAASASCQYRCIECNQEAKELYRDYNHGVLKITICKSCQKPVDKYIEYDPVIILINAILCKAQAYRHILFNTQINIHGKLCIFCLLCEAYLRWWQLQDSNQNTAPDDLIRYAKEWDFYRMFAIAALEQTAYFIGIFTFLWVERPMTAKKKPNFILLLKALLLSSYGKLLLIPAVIWEHDYTSVCLKLIKVFVLTSNFQAIRVTLNINRKLSFLAVLSGLLLESIMVYFFQSMEWDVGSDYAIFKSQDF
Consider B7, for which the binding result in assay [2] and in assay [4] was “binds” each time.

B8: Nluc-ARV1 (K67A), full-length ARV1 mutant (protein, UniProt Q9H2C2 1-271)
chain: MGNGGRSGLQQGKGNVDGVAATPTAASASCQYRCIECNQEAKELYRDYNHGVLKITICKSCQKPVDAYIEYDPVIILINAILCKAQAYRHILFNTQINIHGKLCIFCLLCEAYLRWWQLQDSNQNTAPDDLIRYAKEWDFYRMFAIAALEQTAYFIGIFTFLWVERPMTAKKKPNFILLLKALLLSSYGKLLLIPAVIWEHDYTSVCLKLIKVFVLTSNFQAIRVTLNINRKLSFLAVLSGLLLESIMVYFFQSMEWDVGSDYAIFKSQDF
As to B8, the binding result in assay [4] is “binds”.

B9: full-length ARV1, yeast two-hybrid fusions (pAD-ARV1 and pBD-ARV1) (protein, UniProt Q9H2C2 1-271)
chain: MGNGGRSGLQQGKGNVDGVAATPTAASASCQYRCIECNQEAKELYRDYNHGVLKITICKSCQKPVDKYIEYDPVIILINAILCKAQAYRHILFNTQINIHGKLCIFCLLCEAYLRWWQLQDSNQNTAPDDLIRYAKEWDFYRMFAIAALEQTAYFIGIFTFLWVERPMTAKKKPNFILLLKALLLSSYGKLLLIPAVIWEHDYTSVCLKLIKVFVLTSNFQAIRVTLNINRKLSFLAVLSGLLLESIMVYFFQSMEWDVGSDYAIFKSQDF
Regarding B9, the binding result in assay [1] and in assay [5] was “binds” each time.
